Laboratory results as given in the supplement of paper PMC10369915.
The other results are listed elsewhere or left out. No stated cut-off is given here; in the data, active = 3.2 or more and inactive = the rest. The signal is at background level for most entries.

Biological target: SHP2 C-SH2 domain E139D
Assay: enrichment score (SH2-bound / input frequency) (ratio); bacterial display of known human phosphotyrosine sites (pTyr-Var adds point mutants) read by sequencing; higher = stronger binding; tyrosines were phosphorylated by kinases first
Conditions: peptide library: pTyr-Var
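Further: displayed peptides selected on beads carrying the immobilized SH2 domain, with library peptides lacking any tyrosine serving as negative controls.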

Binder	enrichment score
YPKAHYHWLVL [APTX_Y214_R213H]	active: 3.53
VLPIDYYFPPQ [AR_Y552]	inactive: 1.34
VLSIDYFFPPQ [AR_Y552_P549S_YF]	inactive: 2
GGRIDYIAGLV [APRT_Y60_D65V]	inactive: 0.973
KVKSIYFHTQG [AR_Y916_P914S]	inactive: 0.797
KVKPIYLHTQG [AR_Y916_F917L]	active: 3.46
KVKPIYFHTQG [AR_Y916]	active: 3.24
RGDCTYAPLLG [AR_Y269_M268T]	inactive: 0.817
FPKARYHWLVL [APTX_Y214_YF]	active: 3.51
LPEENYQVLRF [ARHGAP1_Y365]	inactive: 0.798
YPKARYHWLVL [APTX_Y214]	active: 3.48
LASLIYNFILF [AQP6_Y231_V234I]	inactive: 2.37
TSSSRYFDEPV [ARFGAP3_Y356_S355R]	inactive: 0.652
KVKPIYFRTQG [AR_Y916_H918R]	inactive: 3.08
VDHFGYTKDDK [APOB_Y740]	inactive: 0.762
KCLAVYQAGAR [APOE_Y180_R176C]	inactive: 0.919
KLKPIYFHTQG [AR_Y916_V912L]	active: 3.74
ISDDNYGRIRL [ARCN1_Y310_K309N]	inactive: 0.678
ESLSSYRESAK [APOC2_Y47_W48R]	inactive: 0.641

Biological target: SHP2 C-SH2 domain wild-type
Assay: as above
Conditions: peptide library: pTyr-Var

Binder	enrichment score
YPKAHYHWLVL [APTX_Y214_R213H]	inactive: 3.07
VLPIDYYFPPQ [AR_Y552]	inactive: 1.15
VLSIDYFFPPQ [AR_Y552_P549S_YF]	inactive: 1.65
GGRIDYIAGLV [APRT_Y60_D65V]	inactive: 0.923
KVKSIYFHTQG [AR_Y916_P914S]	inactive: 0.709
KVKPIYLHTQG [AR_Y916_F917L]	inactive: 2.88
KVKPIYFHTQG [AR_Y916]	inactive: 2.62
RGDCTYAPLLG [AR_Y269_M268T]	inactive: 0.754
FPKARYHWLVL [APTX_Y214_YF]	inactive: 3
LPEENYQVLRF [ARHGAP1_Y365]	inactive: 1.24
YPKARYHWLVL [APTX_Y214]	inactive: 3.1
LASLIYNFILF [AQP6_Y231_V234I]	active: 3.4
TSSSRYFDEPV [ARFGAP3_Y356_S355R]	inactive: 0.343
KVKPIYFRTQG [AR_Y916_H918R]	inactive: 2.12
VDHFGYTKDDK [APOB_Y740]	inactive: 0.757
KCLAVYQAGAR [APOE_Y180_R176C]	inactive: 0.944
KLKPIYFHTQG [AR_Y916_V912L]	active: 3.34
ISDDNYGRIRL [ARCN1_Y310_K309N]	inactive: 0.838
ESLSSYRESAK [APOC2_Y47_W48R]	inactive: 0.586

Biological target: SHP2 N-SH2 domain L43F
Assay: as above
Conditions: peptide library: pTyr-Var

Binder	enrichment score
YPKAHYHWLVL [APTX_Y214_R213H]	inactive: 2.98
VLPIDYYFPPQ [AR_Y552]	inactive: 1.17
VLSIDYFFPPQ [AR_Y552_P549S_YF]	inactive: 1.93
GGRIDYIAGLV [APRT_Y60_D65V]	inactive: 0.833
KVKSIYFHTQG [AR_Y916_P914S]	inactive: 0.756
KVKPIYLHTQG [AR_Y916_F917L]	inactive: 3.18
KVKPIYFHTQG [AR_Y916]	inactive: 2.98
RGDCTYAPLLG [AR_Y269_M268T]	inactive: 0.772
FPKARYHWLVL [APTX_Y214_YF]	active: 3.29
LPEENYQVLRF [ARHGAP1_Y365]	inactive: 1.14
YPKARYHWLVL [APTX_Y214]	inactive: 3.01
LASLIYNFILF [AQP6_Y231_V234I]	inactive: 2.57
TSSSRYFDEPV [ARFGAP3_Y356_S355R]	inactive: 0.77
KVKPIYFRTQG [AR_Y916_H918R]	inactive: 2.4
VDHFGYTKDDK [APOB_Y740]	inactive: 0.797
KCLAVYQAGAR [APOE_Y180_R176C]	inactive: 0.965
KLKPIYFHTQG [AR_Y916_V912L]	active: 3.66
ISDDNYGRIRL [ARCN1_Y310_K309N]	inactive: 0.685
ESLSSYRESAK [APOC2_Y47_W48R]	inactive: 0.593

Biological target: SHP2 N-SH2 domain T42A
Assay: as above
Conditions: peptide library: pTyr-Var

Binder	enrichment score
YPKAHYHWLVL [APTX_Y214_R213H]	inactive: 2.15
VLPIDYYFPPQ [AR_Y552]	inactive: 1.1
VLSIDYFFPPQ [AR_Y552_P549S_YF]	inactive: 2.12
GGRIDYIAGLV [APRT_Y60_D65V]	inactive: 0.985
KVKSIYFHTQG [AR_Y916_P914S]	inactive: 0.789
KVKPIYLHTQG [AR_Y916_F917L]	inactive: 2.56
KVKPIYFHTQG [AR_Y916]	inactive: 2.99
RGDCTYAPLLG [AR_Y269_M268T]	inactive: 0.612
FPKARYHWLVL [APTX_Y214_YF]	inactive: 2.62
LPEENYQVLRF [ARHGAP1_Y365]	inactive: 1.02
YPKARYHWLVL [APTX_Y214]	inactive: 2.78
LASLIYNFILF [AQP6_Y231_V234I]	inactive: 2.15
TSSSRYFDEPV [ARFGAP3_Y356_S355R]	inactive: 0.428
KVKPIYFRTQG [AR_Y916_H918R]	inactive: 2.11
VDHFGYTKDDK [APOB_Y740]	inactive: 0.613
KCLAVYQAGAR [APOE_Y180_R176C]	inactive: 1.01
KLKPIYFHTQG [AR_Y916_V912L]	inactive: 3.15
ISDDNYGRIRL [ARCN1_Y310_K309N]	inactive: 0.602
ESLSSYRESAK [APOC2_Y47_W48R]	inactive: 0.493

Biological target: SHP2 N-SH2 domain T52S
Assay: as above
Conditions: peptide library: pTyr-Var

Binder	enrichment score
YPKAHYHWLVL [APTX_Y214_R213H]	inactive: 2.76
VLPIDYYFPPQ [AR_Y552]	inactive: 1.15
VLSIDYFFPPQ [AR_Y552_P549S_YF]	inactive: 2.17
GGRIDYIAGLV [APRT_Y60_D65V]	inactive: 0.818
KVKSIYFHTQG [AR_Y916_P914S]	inactive: 0.799
KVKPIYLHTQG [AR_Y916_F917L]	inactive: 2.82
KVKPIYFHTQG [AR_Y916]	inactive: 2.72
RGDCTYAPLLG [AR_Y269_M268T]	inactive: 0.638
FPKARYHWLVL [APTX_Y214_YF]	active: 3.29
LPEENYQVLRF [ARHGAP1_Y365]	inactive: 1.25
YPKARYHWLVL [APTX_Y214]	inactive: 3.02
LASLIYNFILF [AQP6_Y231_V234I]	inactive: 2.43
TSSSRYFDEPV [ARFGAP3_Y356_S355R]	inactive: 0.499
KVKPIYFRTQG [AR_Y916_H918R]	inactive: 2.57
VDHFGYTKDDK [APOB_Y740]	inactive: 0.667
KCLAVYQAGAR [APOE_Y180_R176C]	inactive: 1.01
KLKPIYFHTQG [AR_Y916_V912L]	active: 4.04
ISDDNYGRIRL [ARCN1_Y310_K309N]	inactive: 0.776
ESLSSYRESAK [APOC2_Y47_W48R]	inactive: 0.511

Biological target: SHP2 N-SH2 domain wild-type
Assay: as above
Conditions: peptide library: pTyr-Var

Binder	enrichment score
YPKAHYHWLVL [APTX_Y214_R213H]	inactive: 2.98
VLPIDYYFPPQ [AR_Y552]	inactive: 1.23
VLSIDYFFPPQ [AR_Y552_P549S_YF]	inactive: 1.74
GGRIDYIAGLV [APRT_Y60_D65V]	inactive: 1.02
KVKSIYFHTQG [AR_Y916_P914S]	inactive: 0.847
KVKPIYLHTQG [AR_Y916_F917L]	inactive: 2.8
KVKPIYFHTQG [AR_Y916]	inactive: 2.6
RGDCTYAPLLG [AR_Y269_M268T]	inactive: 0.979
FPKARYHWLVL [APTX_Y214_YF]	inactive: 2.58
LPEENYQVLRF [ARHGAP1_Y365]	inactive: 1.3
YPKARYHWLVL [APTX_Y214]	inactive: 3.06
LASLIYNFILF [AQP6_Y231_V234I]	active: 3.87
TSSSRYFDEPV [ARFGAP3_Y356_S355R]	inactive: 0.511
KVKPIYFRTQG [AR_Y916_H918R]	inactive: 2.44
VDHFGYTKDDK [APOB_Y740]	inactive: 0.895
KCLAVYQAGAR [APOE_Y180_R176C]	inactive: 1.09
KLKPIYFHTQG [AR_Y916_V912L]	inactive: 2.87
ISDDNYGRIRL [ARCN1_Y310_K309N]	inactive: 0.764
ESLSSYRESAK [APOC2_Y47_W48R]	inactive: 0.687
